Results reported in PubChem BioAssay (NCI).
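96-well plates; 48 h exposure; 5 concentrations. Endpoints by linear interpolation between flanking doses. Not reached: highest tested concentration assigned. The concentration for 50% growth inhibition is given as GI50. TGI denotes the concentration required for complete inhibition of growth.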

System: NCI-H322M lung
Assay: NCI-60 cell line screen, 48 h

Cc1ccc(NC(=O)Nc2nc3ccc([N+](=O)[O-])cc3s2)cc1
GI50: 3.13 µM
TGI: 11.1 µM

COc1ccc(C2C(C#N)=C(/N=C/c3ccc(Cl)cc3)Oc3c2sc2c(C)cccc32)cc1 (centres undefined)
GI50: 7.28 µM
TGI: 24.8 µM
